# Measured values reported in patent US20240139156A1, “COMBINATION TREATING PROSTATE CANCER, PHARMACEUTICAL COMPOSITION AND TREATMENT METHOD” (KANGPU BIOPHARMACEUTICALS, LTD., priority 2017, published 2024).
# System: Vcap cells (androgen receptor (+) prostate cancer cells)
# Assay: CTG cell proliferation assay (CellTiter-Glo), compounds alone or in combination
smiles,measurement,setting,value
CC1(C)C(=O)N(c2ccc(C#N)c(C(F)(F)F)c2F)C(=S)N1c1ccc(CCCC#N)c(F)c1 [AR2-4],Survival rate of Vcap cells,1 μM tested compound in combination with 1 μM Galeterone,72.4%
same,Survival rate of Vcap cells,1 μM tested compound in combination with 1 μM prednisone,75.9%
same,Survival rate of Vcap cells,10 μM tested compound in combination with 1 μM Abiraterone acetate,42.4%
same,Survival rate of Vcap cells,10 μM tested compound in combination with 1 μM Galeterone,38.4%
same,Survival rate of Vcap cells,10 μM tested compound in combination with 1 μM prednisone,42.3%
